The source of these data is the supplement of paper PMC9446081.

The structures appear in SMILES notation. In all, about 39,000 compounds went through this assay and about 220 (0.56%) showed activity. Some of the results follow.
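Further: static incubation at 37 °C against the wild-type strain, values averaged over two biological replicates.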

The test system of this assay is Escherichia coli K-12 BW25113. The assay is described as follows: relative growth (OD600 normalised to plate interquartile mean) (fraction); higher = less growth inhibition, active = 0.2 or less. The following applies: 50 µM; LB; incubation time: overnight (16-24 h).
For `C[C@@H]1CCCCO[C@H](CN(C)Cc2ccccc2)[C@H](C)CN([C@@H](C)CO)C(=O)c2cc(NC(=O)NC3CCCCC3)ccc2O1`, the relative growth is inactive: 0.947.
Under `Cc1cccn2c(=O)c3cc(S(=O)(=O)c4ccc(Br)cc4)c(=N)n(CCCN4CCOCC4)c3nc12` stands inactive: 1.01; under `C[C@H](CO)N1C[C@H](C)[C@@H](CN(C)Cc2ccc(Cl)c(Cl)c2)OCCCC[C@H](C)Oc2ccc(NS(=O)(=O)c3ccccc3)cc2C1=O`, inactive: 0.968.
With `O=C(C[C@@H]1CC[C@@H]2[C@H](COC[C@H](O)CN2C(=O)C2CC2)O1)NCc1ccncc1` the figure was inactive: 1.02; with `C[C@H](CO)N1C[C@H](C)[C@H](CN(C)C(=O)NC2CCCCC2)Oc2ccc(NC(=O)CCN3CCOCC3)cc2C1=O`, inactive: 0.998; with `C[C@@H]1CN([C@H](C)CO)C(=O)c2cc(NC(=O)Nc3ccccc3)ccc2O[C@@H](C)CCCCO[C@@H]1CN(C)C(=O)C1CCCCC1`, inactive: 0.999.
With `C[C@@H]1CCCCO[C@H](CN(C)Cc2ccncc2)[C@@H](C)CN([C@@H](C)CO)C(=O)c2cc(NC(=O)Nc3ccc(F)cc3)ccc2O1`, the relative growth is inactive: 1.
Under `NCCCCCNC(=O)[C@H]1C[C@H]2C(=O)NCC(=O)N2[C@H]1c1cccc(OCCO)c1` stands inactive: 1.01; under `CC(=O)OCC(=O)O[C@@H]1[C@H]2[C@@H](OC(=O)c3ccccc3)[C@@H](C)C[C@]2(O)[C@H](OC(C)=O)[C@@]2(C)[C@H](OC(C)=O)[C@]1(OC(C)=O)C[C@H]1C(=O)C(C)(C)C[C@@H]12`, inactive: 0.999.
Under `NCC[C@@H]1CC[C@H](NC(=O)Nc2ccc(F)cc2)[C@@H](CO)O1` stands inactive: 1.
With `Cc1noc(C)c1S(=O)(=O)N(C)C[C@H]1OCCCC[C@@H](C)Oc2ccc(NS(=O)(=O)c3cn(C)cn3)cc2C(=O)N([C@@H](C)CO)C[C@@H]1C` the figure was inactive: 1.02; with `O=C(C[C@@H]1C=C[C@@H](NS(=O)(=O)c2ccc(F)cc2)[C@H](CO)O1)NCc1ccc(Cl)c(Cl)c1`, inactive: 1.01; with `COCCNC(=O)C[C@@H]1C[C@@H]2c3cc(NC(=O)CN(C)C)ccc3O[C@@H]2[C@H](CO)O1`, inactive: 1.02.
Consider `COc1ccc(S(=O)(=O)N(C)C[C@H]2OCCCC[C@@H](C)Oc3ccc(NC(=O)CCC(F)(F)F)cc3C(=O)N([C@H](C)CO)C[C@@H]2C)cc1`, for which the relative growth was inactive: 1.05.
Under `C[C@@H]1CCCCO[C@@H](CN(C)Cc2ccc(C(F)(F)F)cc2)[C@@H](C)CN([C@H](C)CO)C(=O)c2cc(NC(=O)c3ccncc3)ccc2O1` stands inactive: 0.996; under `COCC#Cc1ccc2c(c1)O[C@@H](CN(C)S(=O)(=O)c1cccc(OC)c1)[C@@H](C)CN([C@H](C)CO)S2(=O)=O`, inactive: 1; under `C[C@H](CO)N1C[C@H](C)[C@@H](CN(C)Cc2ccc(Oc3ccccc3)cc2)Oc2ccc(NS(=O)(=O)c3ccc(Cl)cc3)cc2CC1=O`, inactive: 0.989.
Turning to `C[C@@H]1CCCCO[C@H](CN(C)C(=O)Cc2ccccc2)[C@H](C)CN([C@@H](C)CO)C(=O)c2cc(NC(=O)Nc3ccccc3)ccc2O1`, the relative growth was inactive: 1.01.
On to `Cc1ccc(Oc2ccc(CN)cc2)cc1`, for which the relative growth was inactive: 1.01.
With `Cc1noc(C)c1S(=O)(=O)Nc1ccc2c(c1)C(=O)N([C@@H](C)CO)C[C@H](C)[C@@H](CN(C)CC1CCCCC1)OCCCC[C@H](C)O2`, the relative growth is inactive: 0.971.
Under `Cc1nc(C)c(Cl)c(O)c1Cl` stands inactive: 1.15; under `C[C@@H]1CN([C@H](C)CO)C(=O)c2c(c3ccccc3n2C)-c2ccccc2CO[C@@H]1CN(C)CC1CCCCC1`, inactive: 0.985; under `CC(C)NC(=O)Nc1ccc2c(c1)C(=O)N([C@@H](C)CO)C[C@H](C)[C@H](CN(C)Cc1ccc(-c3ccccc3)cc1)O2`, inactive: 0.977.
Under `O[C@@H]1Cc2ccccc2[C@H]1O` stands inactive: 1.
Consider `O=C(C[C@@H]1C[C@H]2c3cc(NS(=O)(=O)c4ccc(F)cc4)ccc3O[C@H]2[C@@H](CO)O1)N1CCOCC1`, for which the relative growth is inactive: 1.02.
With `C=CCC[C@@H](Cc1ccc(F)cc1)C(=O)OC[C@@H](Cc1c[nH]c2ccccc12)NC(=O)[C@H](CC=C)CC(=O)N[C@@H](CO)Cc1ccccc1`, the relative growth is inactive: 1.01.
Turning to `C[C@@H]1CN([C@@H](C)CO)C(=O)c2cc(NC(=O)Cc3cn(C)c4ccccc34)ccc2O[C@H]1CN(C)C(=O)Nc1cccc2ccccc12`, the relative growth was inactive: 1.02.
For `COc1cccc(S(=O)(=O)Nc2ccc3c(c2)C(=O)N(C)C[C@@H](OC)[C@@H](C)CN(C(=O)Cc2cccnc2)[C@H](C)CO3)c1`, the relative growth was inactive: 1.02.
In the case of `C[C@@H]1[C@@H](c2ccccc2)OC(=O)[C@@H]2[C@H]3C(=O)N([C@@H](C)CO)[C@@H]4C(=O)N(Cc5ccccc5)CC=C[C@]34O[C@@H]2/C=C/CCC(=O)N1C`, the relative growth was inactive: 1.02.
In the case of `COc1ccc(CN(C)C[C@H]2Oc3ccc(NC(=O)CCN4CCOCC4)cc3C(=O)N([C@H](C)CO)C[C@@H]2C)cc1`, the relative growth is inactive: 1.
As for `Cc1cc(C(=O)Nc2cccc3c2O[C@@H](CN(C)S(=O)(=O)c2cn(C)cn2)[C@H](C)CN([C@H](C)CO)C3=O)n(C)n1`, the relative growth is inactive: 0.942.
With `COc1ccc(C#Cc2ccc3c(c2)O[C@@H](CN(C)C(=O)CN2CCOCC2)[C@@H](C)CN([C@@H](C)CO)S3(=O)=O)cc1` the figure was inactive: 0.988; with `C[C@@H]1CN([C@@H](C)CO)C(=O)Cc2cc(NC(=O)c3ccncc3)ccc2O[C@@H]1CN(C)Cc1ccc(Oc2ccccc2)cc1`, inactive: 0.985.
Under `Cc1n[nH]c(=O)n1-c1cccc(C(=O)O)c1` stands inactive: 0.999; under `CC(C)CN(C[C@@H](OP(=O)(O)O)[C@H](Cc1ccccc1)NC(=O)O[C@H]1CCOC1)S(=O)(=O)c1ccc(N)cc1`, inactive: 0.988.
With `CC(C)NC(=O)N(C)C[C@@H]1Oc2cc(C#Cc3ccccn3)ccc2S(=O)(=O)N([C@@H](C)CO)C[C@H]1C`, the relative growth is inactive: 0.979.
Regarding `Cc1ccc(S(=O)(=O)Nc2ccc3c(c2)C(=O)N([C@H](C)CO)C[C@H](C)[C@H](CN(C)C(=O)Nc2ccc4c(c2)OCO4)OCCCC[C@@H](C)O3)cc1`, the relative growth is inactive: 0.912.
Consider `Cc1ccc(S(=O)(=O)Nc2ccc3c(c2)C(=O)N([C@H](C)CO)C[C@H](C)[C@H](CN(C)S(=O)(=O)c2cccs2)O3)cc1`, for which the relative growth is inactive: 1.01.
Under `COc1ccc(NC(=O)Nc2ccc3c(c2)C(=O)N([C@H](C)CO)C[C@H](C)[C@H](CN(C)S(=O)(=O)c2ccc(C)cc2)OCCCC[C@@H](C)O3)cc1` stands inactive: 1.03.
Under `C[C@@H]1CCCCO[C@H](CN(C)S(=O)(=O)c2ccc(Cl)cc2)[C@H](C)CN([C@@H](C)CO)C(=O)c2cc(NC(=O)C3CCCCC3)ccc2O1` stands inactive: 1.02; under `C[C@@H]1CN([C@H](C)CO)C(=O)c2cc(NS(=O)(=O)c3cccs3)ccc2O[C@@H](C)CCCCO[C@@H]1CN(C)Cc1ccc(C(=O)O)cc1`, inactive: 0.968; under `C[C@@H]1CCCCO[C@@H](CN(C)C(=O)CCCN(C)C)[C@H](C)CN([C@@H](C)CO)C(=O)c2cc(NS(=O)(=O)c3cn(C)cn3)ccc2O1`, inactive: 0.99.
Under `CCn1cc(-c2ccnc3[nH]c(-c4cccc(CN(C)C)c4)cc23)c(-c2ccc(NC(=O)N(C)C)cc2)n1` stands inactive: 0.946; under `C[C@H](CO)N1C[C@H](C)[C@H](CN(C)Cc2ccc(-c3ccccc3)cc2)Oc2ccc(NC(=O)Nc3ccc(F)cc3)cc2C1=O`, inactive: 0.984; under `N[C@H]1C[C@@H]1c1ccc(-c2cccc(O)c2)cc1`, inactive: 0.951.
In the case of `Cc1noc(C)c1NC(=O)N(C)C[C@H]1OCCCC[C@H](C)Oc2ccc(NC(=O)C3CCCCC3)cc2C(=O)N([C@@H](C)CO)C[C@@H]1C`, the relative growth is inactive: 0.968.
With `COc1cccc(S(=O)(=O)Nc2ccc3c(c2)[C@H]2C[C@H](CC(=O)NC4CCCCC4)O[C@H](CO)[C@H]2O3)c1` the figure was inactive: 1.01; with `C[C@H](CO)N1C[C@H](C)[C@@H](CN(C)C(=O)Nc2cccc(Oc3ccccn3)c2)OCc2cnnn2CCCC1=O`, inactive: 0.984; with `C[C@@H]1CN([C@H](C)CO)C(=O)c2cc(C#CC3(O)CCCC3)cnc2O[C@H]1CN(C)C(=O)Cc1ccncc1`, inactive: 0.971.
In the case of `O=C(C[C@H]1CC[C@@H]2[C@H](COC[C@H](O)CN2Cc2ccccc2F)O1)N[C@@H]1CCN(Cc2ccccc2)C1`, the relative growth is inactive: 0.997.
Take `COc1ccc(NC(=O)N(C)C[C@H]2Oc3c(NC(=O)c4cc(C)nn4C)cccc3C(=O)N([C@@H](C)CO)C[C@H]2C)cc1`: the relative growth is inactive: 0.993.
`O=C(Nc1ccccc1)C1=C[C@H](c2ccc3c(c2)Cc2ccccc2-3)C[C@H](OCc2ccc(CO)cc2)O1`: the relative growth was inactive: 1.04.
Under `CCOc1ccccc1OCCNC(C)Cc1ccc(OC)c(S(N)(=O)=O)c1.Cl` (configuration not stated) stands inactive: 1.03; under `C[C@@H]1CN([C@@H](C)CO)C(=O)Cc2cc(NC(=O)Nc3ccccc3)ccc2O[C@@H]1CN(C)Cc1ccc(C(=O)Nc2ccccc2N)cc1`, inactive: 0.975.
Under `C[C@H](CO)N1C[C@H](C)[C@H](CN(C)C(=O)Nc2ccc(F)cc2)Oc2ccc(NC(=O)Nc3cccc4ccccc34)cc2C1=O` stands inactive: 1.01.
Under `Cc1ccc(S(=O)(=O)N(C)C[C@H]2OCCCC[C@H](C)Oc3ccc(NC(=O)Nc4ccccc4)cc3C(=O)N([C@@H](C)CO)C[C@@H]2C)cc1` stands inactive: 1.06.
In the case of `C[C@H]1CCCCO[C@H](CN(C)CC2CCCCC2)[C@@H](C)CN([C@@H](C)CO)C(=O)c2cc(NC(=O)Nc3ccccc3)ccc2O1`, the relative growth was inactive: 0.967.
